Article PMC6919601, “Identification of Plasmodium dipeptidyl aminopeptidase allosteric inhibitors by high throughput screening” (PLoS ONE, 2019)
The campaign covered roughly 110,000 compounds. About 230 (0.21%) showed an effect of 50% or more. The list shows a part of the results.

Target: DPAP1 (Plasmodium falciparum, UniProt Q8IIJ9)
Assay: primary screen, percent inhibition; read by cleavage of a fluorogenic dipeptide substrate; higher = more effect of the substance
Set-up: species or system P. falciparum D10 trophozoite lysates; single well
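Further: 30 min substrate incubation versus DMSO and 10 µM JCP410 controls.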

Chain of DPAP1 (Q8IIJ9 whole entry, looked up): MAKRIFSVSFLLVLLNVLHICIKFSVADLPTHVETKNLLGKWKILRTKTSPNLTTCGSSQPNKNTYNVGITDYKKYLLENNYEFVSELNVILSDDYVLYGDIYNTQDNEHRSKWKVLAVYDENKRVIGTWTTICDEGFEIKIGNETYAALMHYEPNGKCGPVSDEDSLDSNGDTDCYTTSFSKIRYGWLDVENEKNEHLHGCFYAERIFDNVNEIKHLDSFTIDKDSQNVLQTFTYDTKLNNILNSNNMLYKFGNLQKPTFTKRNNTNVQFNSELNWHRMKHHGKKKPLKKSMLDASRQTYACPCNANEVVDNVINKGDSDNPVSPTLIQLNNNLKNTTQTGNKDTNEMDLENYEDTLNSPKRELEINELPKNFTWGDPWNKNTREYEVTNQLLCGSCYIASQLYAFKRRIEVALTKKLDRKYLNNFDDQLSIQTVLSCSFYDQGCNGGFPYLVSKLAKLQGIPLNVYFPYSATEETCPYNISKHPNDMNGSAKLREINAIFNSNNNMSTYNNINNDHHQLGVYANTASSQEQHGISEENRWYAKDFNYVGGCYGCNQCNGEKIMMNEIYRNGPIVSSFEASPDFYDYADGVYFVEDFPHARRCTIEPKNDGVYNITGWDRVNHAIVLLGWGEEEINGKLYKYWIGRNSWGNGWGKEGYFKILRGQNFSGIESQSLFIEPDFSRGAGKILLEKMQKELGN

Structure (SMILES) | % Inhibition @ 10 uM
O=C(COc1ccc(S(=O)(=O)NCc2ccccc2)cc1)N1CCc2ccccc2C1 | -2.09%
COc1cc(C(=O)Nc2ccc(S(N)(=O)=O)cc2)cc(OC)c1OC | 5.42%
CN(CC(O)c1ccccc1)C1CC2CCC1C2 (stereo not drawn) | -7.17%
CCOC(=O)c1[nH]c(C)c(CC)c1C | -0.591%
CCOc1ccc(C2c3c(oc4ccccc4c3=O)C(=O)N2Cc2ccc3c(c2)OCO3)cc1OC (stereo not drawn) | -1.33%
CC(C)c1ccc(C2C(C#N)=C(N)Oc3cc(N(C)C)ccc32)cc1 (stereo not drawn) | 3.99%
CCC(=O)Nc1ccc(Oc2ccc(NC(=O)CC)c(NC(=O)CC)c2)cc1 | 8.21%
CC(=O)c1cccc(NC(=O)c2ccc(C(C)(C)C)cc2)c1 | 4.12%
O=S(=O)(c1ccccc1)c1nc(Cc2ccccc2)oc1N1CCOCC1 | -7.75%
O=C(NCc1nc2ccccc2[nH]1)c1nc(-c2cccs2)no1 | 2.79%
CCCNC(=O)c1ccc(CSc2nc3ccncc3n2Cc2ccccc2)cc1 | -0.23%
CCN(CC)c1ccc(/C=C2\SC(=O)N(CC(=O)N3CCOCC3)C2=O)cc1 | -7.96%
Cc1ccc(OCC(=O)N(Cc2ccc(C)o2)C2CCS(=O)(=O)C2)cc1 (stereo not drawn) | -2.85%
CC1(C)CC(=O)C2=C(C1)OC1=C(C(=O)CC(C)(C)C1)C2c1ccc(O)cc1 | -0.127%
CCOc1ccccc1C(=O)Nc1cnn(Cc2ccc(F)cc2)c1 | 11.6%
O=C(NC1CCCc2ccccc21)C1(S(=O)(=O)c2ccc(Cl)cc2)CC1 (stereo not drawn) | 4.63%
COc1ccc(C2OCC(CN3CCCCC3)O2)cc1 (stereo not drawn) | -2.18%
Cc1ccc(C)c(OCC(=O)N2CCN(C(=O)c3ccco3)CC2)c1 | -1.57%
O=C1c2ccccc2C(=O)N1Cc1nc2ccccc2c(=O)n1-c1nccs1 | 0.0504%
CCCc1cc(C(=O)OC)c(NC(=O)CCC(=O)O)s1 | 0.64%
Nc1ccccc1-c1nc2ccccc2nc1O | -5.96%
CCOC(=O)c1c(NC(=O)c2ccccc2C(=O)O)sc2c1CCCC2 | -1.29%
CCCc1[nH]nc2c1C(c1ccc(F)cc1)C(C#N)=C(N)O2 (stereo not drawn) | 0.658%
CCCOc1ccc(CC(=O)Nc2ccc(F)cc2)cc1OC | 11.8%
Cc1c(C(=O)N2CCOCC2)oc2c1-c1nn(CC(=O)NCCc3ccc(Cl)cc3)cc1CC2 | 4.4%
CCCCCc1cc(O)c2c(C)cc(=O)oc2c1 | 4.82%
COc1ccc(NC(=O)CC2S/C(=N\c3cccc(Cl)c3C)N(C)C2=O)cc1 (stereo not drawn) | 1.17%
